{
  "source": "paper PMC4336329",
  "about": "(PLoS ONE, 2015)",
  "note": "The whole screen tested about 310,000 compounds, of which about 2,200 (0.71%) showed an effect of 50% or more. Effects have a minus sign here. Some of the results follow.",
  "data": [
    {"target": "human ether-à-go-go-related gene (hERG) potassium channel (human, UniProt Q12809)", "sequence (Q12809 whole entry, looked up)": "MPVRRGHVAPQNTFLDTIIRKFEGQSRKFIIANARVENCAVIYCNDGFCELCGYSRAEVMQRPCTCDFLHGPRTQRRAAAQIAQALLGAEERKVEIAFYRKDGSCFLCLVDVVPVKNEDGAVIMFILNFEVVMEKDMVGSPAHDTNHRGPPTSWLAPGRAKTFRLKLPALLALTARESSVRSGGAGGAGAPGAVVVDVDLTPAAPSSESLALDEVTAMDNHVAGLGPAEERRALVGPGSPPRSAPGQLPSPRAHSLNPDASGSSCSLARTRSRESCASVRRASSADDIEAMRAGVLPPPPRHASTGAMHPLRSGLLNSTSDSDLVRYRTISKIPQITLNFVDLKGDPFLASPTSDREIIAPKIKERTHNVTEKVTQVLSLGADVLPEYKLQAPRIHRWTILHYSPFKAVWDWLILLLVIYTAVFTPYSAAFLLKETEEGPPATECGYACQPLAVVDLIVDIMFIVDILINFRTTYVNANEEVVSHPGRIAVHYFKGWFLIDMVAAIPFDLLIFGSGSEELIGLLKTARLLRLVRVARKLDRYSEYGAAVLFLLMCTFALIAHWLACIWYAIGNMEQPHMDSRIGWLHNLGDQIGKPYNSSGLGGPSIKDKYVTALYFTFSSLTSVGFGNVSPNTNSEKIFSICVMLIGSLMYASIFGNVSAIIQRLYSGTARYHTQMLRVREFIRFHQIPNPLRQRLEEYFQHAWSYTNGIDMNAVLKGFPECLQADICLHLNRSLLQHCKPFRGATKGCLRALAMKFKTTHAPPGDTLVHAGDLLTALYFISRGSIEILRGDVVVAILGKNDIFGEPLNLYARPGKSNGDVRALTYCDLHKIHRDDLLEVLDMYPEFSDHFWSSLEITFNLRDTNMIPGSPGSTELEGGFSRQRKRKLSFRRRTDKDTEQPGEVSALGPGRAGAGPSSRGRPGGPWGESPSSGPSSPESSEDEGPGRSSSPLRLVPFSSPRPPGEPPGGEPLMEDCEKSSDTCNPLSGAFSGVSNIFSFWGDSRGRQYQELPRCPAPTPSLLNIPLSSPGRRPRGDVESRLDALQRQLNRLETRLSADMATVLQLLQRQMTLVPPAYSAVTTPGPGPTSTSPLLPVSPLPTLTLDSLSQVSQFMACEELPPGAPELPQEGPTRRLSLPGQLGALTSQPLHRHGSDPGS", "test": "primary screen, population patch clamp on CHO cells stably expressing hERG", "procedure": "Briefly, Chinese hamster ovary (CHO) cells stably expressing the hERG channel were dislodged from tissue culture flasks and dispensed into PPC plates. […] During the recording, background leak currents were estimated by a 100 ms step to -80 mV from an initial holding potential of -70 mV and subtracted from the subsequent current measurement. The campaign was conducted in two phases using slight differences in recording protocol. In the first phase, the initial voltage pulse used a 100 ms step to -30 mV from a holding potential of -70 mV, a 2 s conditioning step to +25 mV, and a 2 s test step to -30 mV. During the second phase of the screen, the potential during the conditioning step was raised to +45 mV. In both phases of the campaign, a secondary voltage pulse was applied using the same parameters as the second phase initial pulse. The initial and secondary pulses were applied in the absence of compound, and upon application of 1 μM and 10 μM test concentrations. Small molecule effects on hERG current density were quantified by […].", "units": {"hERG current change (%, negative = inhibition) at 1uM": "%"}, "values": [
      {"compound": "O=C(CC(Nc1ccccc1)C(=O)O)c1ccccc1", "note": "(stereo not drawn)", "hERG current change (%, negative = inhibition) at 1uM": 11.2},
      {"compound": "COC(=O)c1scc(S(C)(=O)=O)c1-n1cccc1", "hERG current change (%, negative = inhibition) at 1uM": 9.69},
      {"compound": "O=C(c1ccc(Br)cc1)N1CCN(S(=O)(=O)c2ccccc2)CC1", "hERG current change (%, negative = inhibition) at 1uM": -5.81},
      {"compound": "N#Cc1ccsc1NC(=O)CN1CCN(Cc2ccccc2)CC1", "hERG current change (%, negative = inhibition) at 1uM": -41.1},
      {"compound": "CCC1CCCCN1Cc1nc2c(c(=O)n(C)c(=O)n2C)n1CCCc1ccccc1", "note": "(stereo not drawn)", "hERG current change (%, negative = inhibition) at 1uM": 6.66},
      {"compound": "Cc1ccccc1CCNC(=O)C1CC(O)CN1C(=O)Nc1ccccc1", "note": "(stereo not drawn)", "hERG current change (%, negative = inhibition) at 1uM": 9.44},
      {"compound": "COc1cccc(CNc2nc3nc(C)c(Cl)c(=O)n3[nH]2)c1", "hERG current change (%, negative = inhibition) at 1uM": -0.509},
      {"compound": "CCOC(=O)NC(=O)CSc1nc2ccc(C)cc2[nH]1", "hERG current change (%, negative = inhibition) at 1uM": 14.2},
      {"compound": "COc1ccccc1NCC(=O)c1ccc(C)c(C)c1", "hERG current change (%, negative = inhibition) at 1uM": 13.9},
      {"compound": "CC(/C=N/n1c(C2CCCCC2)n[nH]c1=S)=C\\c1ccccc1", "hERG current change (%, negative = inhibition) at 1uM": 15.1},
      {"compound": "O=C(CN1CCOc2ccccc21)NCc1ccco1", "hERG current change (%, negative = inhibition) at 1uM": 6.69},
      {"compound": "COc1ccc(Cl)cc1S(=O)(=O)N1CCCC(C(=O)NCc2ccccc2)C1", "note": "(stereo not drawn)", "hERG current change (%, negative = inhibition) at 1uM": 19.1},
      {"compound": "O=C(CCC(=O)Nc1ccccc1)NNC(=O)c1ccccc1Cl", "hERG current change (%, negative = inhibition) at 1uM": 12.2},
      {"compound": "Cc1cc(C)c2c(n1)sc1c(=O)n(-c3ccccc3)c(=O)[nH]c12", "hERG current change (%, negative = inhibition) at 1uM": 20},
      {"compound": "O=C(CNC(=O)c1ccncc1)N/N=C/c1ccccc1[N+](=O)[O-]", "hERG current change (%, negative = inhibition) at 1uM": 9.95},
      {"compound": "COc1ccc(NC(=O)C2CCCN(S(=O)(=O)c3cccc4nonc34)C2)cc1OC", "note": "(stereo not drawn)", "hERG current change (%, negative = inhibition) at 1uM": 9.19},
      {"compound": "Cc1ccc(-c2nnc(N3CCN(S(C)(=O)=O)CC3)c3ccccc23)cc1", "hERG current change (%, negative = inhibition) at 1uM": 4.73},
      {"compound": "CCC(C)n1c(O)c(C=NC(C)c2ccccc2)c(=O)[nH]c1=S", "note": "(stereo not drawn)", "hERG current change (%, negative = inhibition) at 1uM": 19.7},
      {"compound": "Cc1csc(=O)n1CCC(=O)OCC(=O)Nc1cc(Cl)ccc1[N+](=O)[O-]", "hERG current change (%, negative = inhibition) at 1uM": 2.36},
      {"compound": "O=C(Nc1ccc(Cl)cc1Cl)NC1CCCC1", "hERG current change (%, negative = inhibition) at 1uM": 11.9},
      {"compound": "CC1CCC2(CC1)NC(=O)N(NC(=O)c1cccc(N(C)C)c1)C2=O", "note": "(stereo not drawn)", "hERG current change (%, negative = inhibition) at 1uM": 7.77},
      {"compound": "COc1ccc(CCC2(C)NC(=O)NC2=O)cc1", "note": "(stereo not drawn)", "hERG current change (%, negative = inhibition) at 1uM": 4.47},
      {"compound": "CC(C)CCn1c(SCCN2CCOCC2)nc2c1c(=O)[nH]c(=O)n2C", "hERG current change (%, negative = inhibition) at 1uM": 1.89},
      {"compound": "O=C(N/N=C\\c1cccs1)c1sccc1-n1cccc1", "hERG current change (%, negative = inhibition) at 1uM": 12.7},
      {"compound": "Cc1ccc(N=C2C(=S)N(c3ccc(C)cc3)C(=N)N2/N=C/c2ccc(Cl)cc2)cc1", "hERG current change (%, negative = inhibition) at 1uM": 2.05},
      {"compound": "CCOc1ccc(-n2nc3cc(C)c(N)cc3n2)cc1", "hERG current change (%, negative = inhibition) at 1uM": 15.5},
      {"compound": "O=C(NCCCN1CCOCC1)/C(=C/c1ccco1)NC(=O)c1ccccc1", "hERG current change (%, negative = inhibition) at 1uM": 22.9},
      {"compound": "COc1ccc(CNC(=O)N2CCN(c3ccc(F)cc3)CC2)cc1", "hERG current change (%, negative = inhibition) at 1uM": 3.39},
      {"compound": "CCN1CCN(C(=O)CN(c2cc(OC)ccc2OC)S(C)(=O)=O)CC1", "hERG current change (%, negative = inhibition) at 1uM": 12.3},
      {"compound": "CCOc1nc(N(C)C)nc(-n2nnc(C(C)=O)c2C)n1", "hERG current change (%, negative = inhibition) at 1uM": 12.3},
      {"compound": "COc1cc(/C=N/NC(N)=O)cc(Br)c1OCc1ccccc1C", "hERG current change (%, negative = inhibition) at 1uM": 12.8},
      {"compound": "Cc1cc(C(=O)N/N=C/c2cccnc2)c(C)o1", "hERG current change (%, negative = inhibition) at 1uM": 9.96},
      {"compound": "O=C(Nc1ccccc1C(=O)Nc1ccccn1)c1ccccc1F", "hERG current change (%, negative = inhibition) at 1uM": 11.2},
      {"compound": "CCC1CCCCN1Cc1c(O)ccc2c(=O)c(-c3ccccc3OC)coc12", "note": "(stereo not drawn)", "hERG current change (%, negative = inhibition) at 1uM": 7.86},
      {"compound": "Cl.NC1C=CC=C(C(=O)O)C1", "note": "(stereo not drawn)", "hERG current change (%, negative = inhibition) at 1uM": 7.13},
      {"compound": "CC(C)(C)NC(=O)/C(=C/c1ccccc1F)NC(=O)c1ccc([N+](=O)[O-])cc1", "hERG current change (%, negative = inhibition) at 1uM": 14},
      {"compound": "COc1ccc2cc(C)c3nnc(SCC(=O)Nc4cc(OC)c(OC)cc4C(=O)O)n3c2c1", "hERG current change (%, negative = inhibition) at 1uM": 14.5},
      {"compound": "COCCNC(=O)c1c[nH]c2ccc(S(=O)(=O)Nc3ccc(F)cc3F)cc2c1=O", "hERG current change (%, negative = inhibition) at 1uM": 14.8},
      {"compound": "Cc1[nH]c2ccccc2c(=O)c1SC(F)(F)C(F)C(F)(F)F", "note": "(stereo not drawn)", "hERG current change (%, negative = inhibition) at 1uM": 6.17},
      {"compound": "COc1ccc(NC(=O)Cn2nnc(C(=O)NCCc3ccccc3)c2N)c(OC)c1", "hERG current change (%, negative = inhibition) at 1uM": 8.43},
      {"compound": "C=CCN1C(=O)NC(=O)/C(=C/c2ccc(N(C)C)c(Br)c2)C1=O", "hERG current change (%, negative = inhibition) at 1uM": 12.1},
      {"compound": "Cc1nc2ccccc2nc1SCC(=O)c1ccccc1", "hERG current change (%, negative = inhibition) at 1uM": 21},
      {"compound": "COc1ccc(OC2C(=O)N(Cc3ccc(F)cc3)C2c2ccc(OC)c(OC)c2)cc1", "note": "(stereo not drawn)", "hERG current change (%, negative = inhibition) at 1uM": 7.28},
      {"compound": "CC1(C)CC(=O)C2=C(C1)Nc1ccccc1N=C2.Cl", "hERG current change (%, negative = inhibition) at 1uM": -16.2},
      {"compound": "COc1ccccc1OCCn1cc(/C=C(\\C#N)C(=O)NCc2ccco2)c2ccccc21", "hERG current change (%, negative = inhibition) at 1uM": 8.39}
    ]}
  ]
}
